Experimental data from the supplement of paper PMC11417369.
The other results are listed elsewhere or left out.

Each sequence was assayed on PfAP2-HC AP2 domain (GST-tagged) (assay: gcPBM binding intensity (ln(normalized median fluorescence intensity)); higher = stronger DNA binding).
In short: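 GST-tagged P. falciparum DNA-binding domains produced in E. coli were incubated for 1 h on an Agilent 4 × 180k array of primer-extended double-stranded 36-bp intergenic genomic probes with negative controls. Binding intensity is the highest Masliner-normalised natural-log median intensity across replicate spots of either probe orientation, with bound protein detected by Alexa488 anti-GST antibody at 488 nm.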

Row | Sequence | gcPBM binding intensity (ln)
1 | AAAAATATAATATAATGTACACAAAAAAAAAAAATC [XGTACX_site1427] | 9.96
2 | TATGAAGACACAAATACACACACTCAAAAAAAAAAA [CACACA_site2660] | 10.1
3 | GAAAAAAAAAAAAAAAAACACACGGTACATTCAAAG [CACACA_site303] | 9.75
4 | AAAAAGAAGATGCAAACATGCACACAGAAAAAAAAA [TGCATGCA_site375] | 10.1
5 | AAAAAAAAAAAAATTACACACATACAGATAATAATA [CACACA_site5244] | 10.1
6 | TTTTTTTTTTGAATATGTACTTAAAAAAATTTTTTT [XGTACX_site3851] | 9.45
7 | CTATTATAAAAATGATGTACACTTATATATACATAT [XGTACX_site6087] | 9.88
8 | TTTTCATTCCACAACGCACACCCATTTAAAAAAAAA [CACACA_site1377] | 9.68
9 | TAATTTTTTTTTTTTTTTTTTTTTTTTTTTTTTTTA [CACACA_negctrl_site1218] | 9.13
10 | TACATACATACATACATACACACATATATATATATA [CACACA_site1996] | 9.83
11 | TACATGTATAATATAATACACACTATATAATATACA [CACACA_site2239] | 9.72
12 | AAATTATAATTAGGAACACACATATATATATATATA [CACACA_site3098] | 9.67
13 | ACAACAATATGGAATTGTACATATATATATAAATAT [XGTACX_site3139] | 9.81
14 | TATTTTTTTGTGTTTGGTACACACGTTATAAAAAAT [XGTACX_site2655] | 9.64
15 | CTAGCAAATACATACACACACACACCCATACATATA [CACACA_site3496] | 10.7
16 | TACACAAAACATAAAAGTACATAATAATAAAGTTAA [XGTACX_site8872] | 9.88
17 | GAACAAATAAAAAGGAGTACAATCAAATCTACGTAT [XGTACX_site343] | 9.91
18 | TAAATAAATACATACACACACATACATATATATATA [CACACA_site3129] | 10.1
19 | TTATTGTTTATTAAATGTACAGATTCGTTAAAATTA [XGTACX_site3041] | 9.19
20 | ATTTGGCATAAACACACACACACACCCACCCACATA [CACACA_site8096] | 10.9
21 | TTTTTATTGAGAACAGTGCAAATAACAAAAAAAAAA | 9.55
22 | TTATAATAAATATGAAGTACTATAAATATGGTATAT [XGTACX_site5448] | 9.75

Row | Sequence | gcPBM binding intensity (ln)
23 | CACTAAAATGGACACACACACACACCGATATATATA [CACACA_site6139] | 10.5
24 | ATCGCATAAAGACAAGAACACACATATATATTGTAG [CACACA_site9229] | 9.74
25 | AATAAATATAGGAATACACACAATATAAATGTATTG [CACACA_site3366] | 9.86
26 | CATATATAAAATATATGTACTTATAGAACATAATTT [XGTACX_site1936] | 9.48
27 | CATTTTTTAAGCATCACACACGAAAGAACAAAGTGG [CACACA_site4755] | 9.79
28 | TGGAAAATTATAAGGTGTACATATAAGCTATTATAT [XGTACX_site118] | 9.63
29 | TTTTTTTTTTTAAGGTGTACAATAAAAATTTATGCA [XGTACX_site8860] | 9.22
30 | AGTATACATTCATTTTGTACTCAATGATTTGATAAC [XGTACX_site6787] | 9.64
31 | ATAATTATATTCCATACACACATATATTTAAAGGTT [CACACA_site2957] | 9.81
32 | AGGAATAAATAATTAACACACACAATCTTTTTTTTT [CACACA_site9027] | 10.1
33 | TAATAAGTATAAAATAGTACATATAAATATATCAAA [XGTACX_site8834] | 9.75
34 | ACTTTTTCACATAAAAATGATCCGATTAGTAATAAT [XGTACX_negctrl_site248] | 9.45
35 | ATAATATTAGTAAACACACTCAAATTATATATGATA [CACACA_site5721] | 9.75
36 | AAATAAAAAAACTATTGTACTGAATACAAATTAAAT [XGTACX_site3793] | 9.81
37 | CATTATGTTGTAAATACACACATACCTATACATACA [CACACA_site6485] | 9.84
38 | TATTTATTTATATTTACACACATTCATATAAATTCA [CACACA_site7628] | 9.77
39 | TCTGAGAATGATAAAAAAAAAAAAAATGAAAAATTA [CACACA_negctrl_site1478] | 9.27
40 | ACGATATTTTTGGTGACACACATATATATATATATA [CACACA_site126] | 9.8
41 | TTTTTTTTTTTATCTGCACACCCTTTTGTGAATATT [CACACA_site789] | 9.8
42 | ATGCAATAAATATACACACACAAATCTATATTTATA [CACACA_site7179] | 10.5
43 | AATTATTATATATATATATATATATATTTATATATT [GTGCAC_negctrl_site387] | 9.91
44 | AGTTCAAGGATTAAGACACACATATAAATAAATAAA [CACACA_site3662] | 9.79
